Source: the supplement of paper PMC4604168 (melanoma cell lines)
The other results are listed elsewhere or left out. Repeats are few or missing, and single values can be far off.

Tests used:
Experiment in all cases: cell count relative to DMSO control; melanoma cells; higher = more viable cells
Conditions in all cases: library dose: standard library concentration; 72 h
G361 = test system: G361
IPC-298 = test system: IPC-298
IST-MEL1 = test system: IST-MEL1
LB2518-MEL = test system: LB2518-MEL
LOXIMVI = test system: LOXIMVI
MEL-HO = test system: MEL-HO
MZ2-MEL = test system: MZ2-MEL
MeWo = test system: MeWo
RPMI7951 = test system: RPMI7951
RVH-421 = test system: RVH-421
SkMel28 = test system: SkMel28
SkMel2 = test system: SkMel2
SkMel30 = test system: SkMel30
SkMel5 = test system: SkMel5
UACC257 = test system: UACC257
UACC62 = test system: UACC62
WM115 = test system: WM115
WM1716 = test system: WM1716
WM1745 = test system: WM1745
WM3526 = test system: WM3526
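Further: cells treated in 1,536-well plates, then fixed and DAPI-stained, with nuclei counted from automated high-throughput microscope images.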

Row | Structure (SMILES) | cell count (G361) [%] | cell count (IPC-298) [%] | cell count (IST-MEL1) [%] | cell count (LB2518-MEL) [%] | cell count (LOXIMVI) [%] | cell count (MEL-HO) [%] | cell count (MZ2-MEL) [%] | cell count (MeWo) [%] | cell count (RPMI7951) [%] | cell count (RVH-421) [%] | cell count (SkMel28) [%] | cell count (SkMel2) [%] | cell count (SkMel30) [%] | cell count (SkMel5) [%] | cell count (UACC257) [%] | cell count (UACC62) [%] | cell count (WM115) [%] | cell count (WM1716) [%] | cell count (WM1745) [%] | cell count (WM3526) [%]
1 | CC(=O)O[C@@]12CO[C@@H]1C[C@H](O)[C@@]1(C)C(=O)[C@H](O)C3=C(C)[C@@H](OC(=O)[C@H](O)[C@@H](NC(=O)OC(C)(C)C)c4ccccc4)C[C@@](O)([C@@H](OC(=O)c4ccccc4)[C@H]21)C3(C)C [Docetaxel] + Cc1cc(N2CCOCC2)cc2[nH]c(-c3c(NC[C@@H](O)c4cccc(Cl)c4)cc[nH]c3=O)nc12 [BMS536924] (first compound 0.0005 µM, partner dose 1 µM) | 12.9 | 51.2 | 32.4 | 31.7 | 50.8 | 49.8 | 41.3 | 26.8 | 22.4 | 48.4 | 11.1 | 27 | 39.2 | 33 | 66.6 | 55.2 | 39 | 34.8 | 29.7 | 43.6
2 | Nc1nc(F)nc2c1ncn2[C@@H]1O[C@H](CO)[C@@H](O)[C@@H]1O [fludarabine] + Cn1c(Nc2ccc(C(F)(F)F)cc2)nc2cc(Oc3ccnc(-c4ncc(C(F)(F)F)[nH]4)c3)ccc21 [CHIR265] (first compound 1 µM, partner dose 0.4 µM) | 28.6 | 40.3 | 64.8 | 29.8 | 52.4 | 45.3 | 51.1 | 65 | 29.7 | 38.9 | 3.08 | 1.19 | 16 | 30.7 | 30.6 | 24.3 | 37.1 | 60.5 | 42.1 | 21.9
3 | CC(=O)O[C@@]12CO[C@@H]1C[C@H](O)[C@@]1(C)C(=O)[C@H](O)C3=C(C)[C@@H](OC(=O)[C@H](O)[C@@H](NC(=O)OC(C)(C)C)c4ccccc4)C[C@@](O)([C@@H](OC(=O)c4ccccc4)[C@H]21)C3(C)C [Docetaxel] + C[C@]1(c2nc3c(C(N)=O)cccc3[nH]2)CCCN1 [Veliparib] (first compound 0.0005 µM, partner dose 7 µM) | 10.5 | 38.4 | 41.1 | 40 | 53.3 | 34.5 | 33.4 | 19.4 | 28.8 | 29.2 | 19.4 | 11.9 | 42.8 | 32.6 | 51.3 | 50.6 | 30.9 | 33.5 | 42.2 | 29.8
4 | CC(=O)O[C@@]12CO[C@@H]1C[C@H](O)[C@@]1(C)C(=O)[C@H](O)C3=C(C)[C@@H](OC(=O)[C@H](O)[C@@H](NC(=O)OC(C)(C)C)c4ccccc4)C[C@@](O)([C@@H](OC(=O)c4ccccc4)[C@H]21)C3(C)C [Docetaxel] + Nc1nc(F)nc2c1ncn2[C@@H]1O[C@H](CO)[C@@H](O)[C@@H]1O [fludarabine] (first compound 0.0005 µM, partner dose 1 µM) | 13 | 32.4 | 35.4 | 51 | 48.8 | 41.9 | 38.7 | 27.6 | 19.5 | 50.2 | 1.59 | 2 | 8.01 | 23.6 | 28.8 | 24.9 | 44.9 | 32.4 | 36.5 | 17.1
5 | Nc1ncn([C@H]2C[C@H](O)[C@@H](CO)O2)c(=O)n1 [decitabine] + CC(C)(C)c1cnc(CSc2cnc(NC(=O)C3CCNCC3)s2)o1 [SNS-032] (first compound 0.5 µM, partner dose 0.05 µM) | 70.1 | 60.4 | 75.1 | 71.7 | 56.6 | 83.9 | 63.6 | 71.8 | 20.2 | 64.9 | 62.3 | 77.5 | 73.3 | 66.9 | 94.5 | 56.9 | 88.9 | 63.4 | 95.6 | 89.5
6 | CC(=O)c1c(C)c2cnc(Nc3ccc(N4CCNCC4)cn3)nc2n(C2CCCC2)c1=O [palbociclib] + Cc1nc(Nc2ncc(C(=O)Nc3c(C)cccc3Cl)s2)cc(N2CCN(CCO)CC2)n1 [dasatanib] (first compound 0.2 µM, partner dose 0.02 µM) | 51.5 | 70.5 | 66.8 | 60 | 18.2 | 71.6 | 54 | 44.4 | 58.3 | 45.8 | 33.3 | 76.7 | 62.4 | 44.5 | 80.3 | 59.3 | 46.4 | 40.9 | 47.1 | 41.1
7 | CO[C@H]1C[C@@H]2CC[C@@H](C)[C@@](O)(O2)C(=O)C(=O)N2CCCC[C@H]2C(=O)O[C@H]([C@H](C)C[C@@H]2CC[C@@H](OCCO)[C@H](OC)C2)CC(=O)[C@H](C)/C=C(\C)[C@@H](O)[C@@H](OC)C(=O)[C@H](C)C[C@H](C)/C=C/C=C/C=C/1C [everolimus] + NC(=O)Nc1cc(-c2cccc(F)c2)sc1C(=O)N[C@H]1CCCNC1 [AZD7762] (first compound 0.1 µM, partner dose 0.1 µM) | 81.4 | 67.2 | 90.3 | 58.6 | 53.5 | 69.1 | 90.6 | 63.7 | 27.4 | 91.7 | 21.5 | 49.1 | 51.4 | 49.6 | 86.5 | 69.4 | 47.6 | 76.8 | 62 | 47.5
8 | Nc1ccn([C@@H]2O[C@H](CO)[C@@H](O)C2(F)F)c(=O)n1 [gemcitabine] + Cn1nnc2c(C(N)=O)ncn2c1=O [temozolomide] (first compound 0.002 µM, partner dose 10 µM) | 50.2 | 53.4 | 35.5 | 78.3 | 82 | 75.5 | 120 | 50.6 | 71.3 | 66.6 | 60.8 | 142 | 58.6 | 93.3 | 94.4 | 46.4 | 72.2 | 46.5 | 61.6 | 101
9 | CO[C@H]1C[C@@H]2CC[C@@H](C)[C@@](O)(O2)C(=O)C(=O)N2CCCC[C@H]2C(=O)O[C@H]([C@H](C)C[C@@H]2CC[C@@H](OCCO)[C@H](OC)C2)CC(=O)[C@H](C)/C=C(\C)[C@@H](O)[C@@H](OC)C(=O)[C@H](C)C[C@H](C)/C=C/C=C/C=C/1C [everolimus] + C[C@@H]1CCN(C(=O)CC#N)C[C@@H]1N(C)c1ncnc2[nH]ccc12 [CP690550] (first compound 0.1 µM, partner dose 5 µM) | 66.9 | 83.5 | 73 | 67.9 | 86.5 | 79.4 | 88.1 | 73.8 | 74.7 | 91.7 | 54.5 | 63.5 | 68.8 | 52.9 | 91.5 | 68.2 | 62 | 67 | 99 | 71.5
10 | Nc1ccn([C@@H]2O[C@H](CO)[C@@H](O)C2(F)F)c(=O)n1 [gemcitabine] + CO[C@@H]1[C@H](N(C)C(=O)c2ccccc2)C[C@H]2O[C@]1(C)n1c3ccccc3c3c4c(c5c6ccccc6n2c5c31)C(=O)NC4 [Midostaurin] (first compound 0.002 µM, partner dose 0.4 µM) | 38.5 | 30.5 | 92.3 | 59.9 | 68.2 | 58.8 | 50.9 | 42.4 | 38.6 | 119 | 37.3 | 51.7 | 76.7 | 72 | 70.3 | 73.6 | 59.3 | 53.4 | 32.8 | 82.3
11 | Nc1ccn([C@@H]2O[C@H](CO)[C@@H](O)C2(F)F)c(=O)n1 [gemcitabine] + OCc1c[nH]c2ccccc12 [Indole-3-carbinol] (first compound 0.002 µM, partner dose 4 µM) | 40.9 | 48.2 | 42.9 | 54.8 | 49.5 | 51 | 76.7 | 32.8 | 61.5 | 51.2 | 76 | 84.4 | 92.1 | 92.6 | 104 | 124 | 70.4 | 69.4 | 53.3 | 87.8
